# In PubChem BioAssay (NCATS):
# This list was built around the results that the source calls inconclusive (neither active nor inactive); the mix of calls is not that of the screen. For some assays here: Potencies of inconclusive entries are left out as doubtful fits. Calls of active or inactive are those of the source. Calls follow the shape of the dose curve; as a rule, active = well fitted curve in the direction sought with a large enough effect; inconclusive = small, poorly fitted or top-dose-only effect, or another doubt; inactive = no such curve, though single readings can be large; an effect the other way counts as inactive or inconclusive. Peptide text beside a SMILES is read from it. * marks the point of attachment. Hexanoyl = CCCCCC(=O)*
# Key:
# [1] = test system: Zika virus NS2B-NS3 protease (linked construct); assay: Primary screen NINDS Rhodamine qHTS for Zika virus inhibitors (AID 1347160); also: potency is read from the fitted curve at half-maximal effect; nearly all actives have a fitted effect of over 55% in size
# How it was run: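 Purified NS2B-NS3 protease with the NS2B hydrophilic domain joined by a flexible linker (25 nM) in 10 mM Tris-HCl pH 8.0, 0.01% Tween 20, preincubated 15 min at RT with compound; Rhodamine110 peptide substrate 1.5 µM; fluorescence change over 15 min; 4-parameter Hill fit.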
# [2] = UWB1.289 Cancer Cell Toxicity qHTS against the NCATS CANVASS Library (AID 1347347); also: nearly all actives have a fitted effect of over 60% in size; also: potency is read from the fitted curve at half-maximal effect; as to activity change, negative = cytotoxicity: % is scaled to controls: 0 for no effect and ±100 for the full control effect
# How it was run: (§1)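 ATP content after 72 h treatment, detected by CellTiter-Glo luminescence (15min room-temperature development), reflects cell viability. Wells contained 1000 cells and received compounds at 11 concentrations.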
# [3] = SW1088 Cancer Cell Toxicity qHTS against the NCATS CANVASS Library (AID 1347350); also: nearly all actives have a fitted effect of over 75% in size; also: potency is read from the fitted curve at half-maximal effect
# How it was run: as §1
# [4] = A2780 Cisplatin Sensitive Ovarian Cancer Cell Toxicity qHTS against the NCATS CANVASS Library (AID 1347353); also: nearly all actives have a fitted effect of over 60% in size; also: potency is read from the fitted curve at half-maximal effect
# How it was run: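 Luminescent ATP content (ATPLite, 10 min at room temperature) served as the read-out after cells had been exposed to compounds for 72 hours at 37 °C. Dosing followed an 11-point concentration series.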
# [5] = KB-8-5-11 Cancer Cell Toxicity qHTS against the NCATS CANVASS Library (AID 1347364); settings: activity change, negative = toxicity: at 46.1 µM (top of the series); also: nearly all actives have a fitted effect of over 75% in size; also: potency is read from the fitted curve at half-maximal effect
# How it was run: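 Plate 500 KB-8-5-11 cells per well in DMEM + 10% FBS, add compounds by pin transfer, incubate 72 hr at 37C. Add CellTiter-Glo, wait 10 minutes at room temperature, read luminescence.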
# [6] = qHTS for Antimalaria activity screened against the NCATS CANVASS Library (AID 1347380); also: nearly all actives have a fitted effect of over 40% in size; also: potency is read from the fitted curve at half-maximal effect;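 as to activity change, negative = inhibition: Plasmodium falciparum strain Dd2 asexual parasites grown in red blood cells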
# How it was run: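 Dd2 strain, infected erythrocytes 2.5% Hct final / 0.3% parasitemia. 11-pt qHTS titration, 72 h, 37C, 5% O2, 5% CO2. Lysis buffer + SYBR Green, 18 h, fluorescence 485/535 nm.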
# [7] = Secretion counterscreen for inhibitors of the SERCaMP assay screened against the NCATS CANVASS Library (AID 1347390); settings: SH-SY5Y constitutive GLuc secretion, luminescence, 20 h; activity change, negative = inhibition: at 76.6 µM (top of the series);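 also: light from luciferase secreted into medium read as a measure of general secretion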; also: potency is read from the fitted curve at half-maximal effect; as to activity change, negative = inhibition: % is scaled to controls: 0 for no effect and ±100 for the full control effect
# How it was run: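 SH-SY5Y-GLuc STOP cells; 4 h attach; cpds 0.001 - 77 uM (qHTS, 11 pts), 20 h 37C/5% CO2; coelenterazine in glow buffer; luminescence, 5 s exposure.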
# [8] = qHTS for inhibitors of ER calcium dysfunction: SERCaMP assay screened against the NCATS CANVASS Library (AID 1347393); settings: SH-SY5Y GLuc-SERCaMP (Gaussia luciferase released on ER calcium loss) secretion, thapsigargin, luminescence; activity change, negative = inhibition: at 76.6 µM (top of the series) unless noted; also: nearly all actives have a fitted effect of over 40% in size; also: potency is read from the fitted curve at half-maximal effect;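 as to activity change, negative = inhibition: % is scaled to controls: 0 for no effect and ±100 for the full control effect; lower secreted reporter signal means inhibitor of ER calcium depletion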
# How it was run: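 qHTS in SH-SY5Y reporter cells: 16 h compound pretreatment, 4 h thapsigargin, then secreted Gaussia luciferase measured by luminescence.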
# [9] = Viability qHTS for inhibitors of the SERCaMP assay screened against the NCATS CANVASS Library (AID 1347400); also: potency is read from the fitted curve at half-maximal effect; nearly all actives have a fitted effect of over 70% in size
# How it was run: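 SH-SY5Y SERCaMP MJH297 cells, 1000/well; 4 h settle, 37C/5% CO2; pin-transferred cpds; 48 h; CellTiter-Glo lum. Pos ctrl bortezomib 0.0001 - 4.6 uM.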
# [10] = HPAF-II Cancer Cell Toxicity qHTS against the NCATS CANVASS Library (AID 1347346); also: nearly all actives have a fitted effect of over 55% in size; also: potency is read from the fitted curve at half-maximal effect; as to activity change, negative = cytotoxicity: % is scaled to controls: 0 for no effect and ±100 for the full control effect
# How it was run: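 Luminescence from CellTiter-Glo, added after 72 h compound exposure and a 15 min room-temperature incubation, served as the viability readout. HPAF-II cells (1000/well) received an 11-point concentration series.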
# [11] = HEK-293 Cancer Cell Toxicity qHTS against the NCATS CANVASS Library (AID 1347355); also: nearly all actives have a fitted effect of over 65% in size; also: potency is read from the fitted curve at half-maximal effect
# How it was run: (§2)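 Luminescent ATP read-out (CellTiter-Glo, 15min at room temperature) measures survival after cells face an 11-point compound series for 72 hours at 37 degrees C/5% CO2.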
# [12] = qHTS for activators of Nrf2/ARE signaling pathway screened against the NCATS CANVASS Library (AID 1347391); also: nearly all actives have a fitted effect of over 60% in size; also: potency is read from the fitted curve at half-maximal effect
# How it was run: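 Plate ARE-bla HepG2 cells at 2000/well and let them settle 5 h. Pin-transfer compounds in DMSO, incubate 16 h at 37C. Load CCF4 for 2 h at room temperature and read blue/green fluorescence.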
# [13] = OV-SAHO Cancer Cell Toxicity qHTS against the NCATS CANVASS Library (AID 1347348); settings: OV-SAHO viability, CellTiter-Glo luminescence, 72 h; activity change, negative = cytotoxicity: at 38.3 µM (top of the series); also: nearly all actives have a fitted effect of over 55% in size; also: potency is read from the fitted curve at half-maximal effect
# How it was run: as §1
# [14] = Panc-1005 Cancer Cell Toxicity qHTS against the NCATS CANVASS Library (AID 1347349); also: nearly all actives have a fitted effect of over 60% in size; also: potency is read from the fitted curve at half-maximal effect
# How it was run: as §1
# [15] = UWB1.289-WTBRCA1 Cancer Cell Toxicity qHTS against the NCATS CANVASS Library (AID 1347354)
# How it was run: as §2
# [16] = qHTS for Hypoxia signaling pathway (HIF-1) antagonists against the NCATS CANVASS Library (AID 1347374)
# How it was run: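 HRE-bla ME-180 cells in medium with 0.5% dialyzed FBS received compounds (11-point series) plus CoCl2 (60 uM addition stock) for 17 hrs at 37C. Beta-lactamase activity read with CCF4 (405 nm ex, 460/530 nm em); CellTiter-Glo viability measured in same wells.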
# [17] = qHTS for Activators of p53 Stress Response Pathway screened against the NCATS CANVASS Library (AID 1347388); also: potency is read from the fitted curve at half-maximal effect
# How it was run: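 p53RE-bla HCT-116 cells (4000/well) were plated 5 h at 37C, exposed to compounds for 16 h at 37C over an 11-point concentration series, then loaded with CCF4 for 2 h at room temperature; 460/530 nm emission ratio read.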
# [18] = U-118MG Cancer Cell Toxicity qHTS against the NCATS CANVASS Library (AID 1347351)
# How it was run: as §1
# [19] = qHTS for inhibitors of Wild type Zika virus screened against the NCATS CANVASS Library (AID 1347396);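 also: ATP luminescence of surviving cells so rescue from viral cell killing; % is scaled to controls: 0 for no effect and ±100 for the full control effect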
# How it was run: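 Vero 766 (African green monkey) cells, 1000 per well, attached overnight, then compounds were added in an 11-point series before wild-type Zika virus infection. After 72 h at 37C, cell viability was read as CellTiter Glo luminescence.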
# Tags tell the direction and shape of the fitted curve.
smiles,measurement,setting,value
COc1ccc(-c2oc3cc(OC)cc(OC)c3c(=O)c2O)cc1,Potency,[1],"inconclusive [inhibitor, partial curve]"
same,Potency,[2],active: 18.8 µM
same,Potency,[3],"inconclusive [cytotoxic, full curve]"
same,Potency,[4],"inconclusive [cytotoxic, single point]"
same,Potency,[5],"inconclusive [cytotoxic, partial curve, poor fit]"
same,Potency,[6],"inconclusive [cytotoxic, single point]"
same,"activity change, negative = inhibition",[7],inconclusive: -43.5% [inhibitor]
same,"activity change, negative = inhibition",[8],inconclusive: -17.7% [inhibitor]
same,Potency,[9],"inconclusive [cytotoxic, single point]"
O=Cc1ccc2n1C[C@]1(OC2)O[C@H](CO)[C@@H](O)[C@@H]1O,Potency,[1],"inconclusive [inhibitor, partial curve, poor fit]"
same,Potency,[10],inactive
same,Potency,[3],inactive
same,Potency,[11],inactive
same,Potency,[6],"inconclusive [cytotoxic, full curve]"
same,Potency,[12],inactive
CC1=C(C)C(=O)OC(C(C)C2(O)CCC3C4C5OC5C5(O)CC=CC(=O)C5(C)C4CCC32C)C1 (stereo not drawn),Potency,[1],"inconclusive [inhibitor, partial curve]"
same,Potency,[2],"inconclusive [cytotoxic, single point]"
same,Potency,[13],"inconclusive [cytotoxic, partial curve]"
same,Potency,[14],"inconclusive [cytotoxic, single point]"
same,Potency,[4],"inconclusive [cytotoxic, single point]"
same,Potency,[11],"inconclusive [cytotoxic, single point]"
same,Potency,[6],"inconclusive [cytotoxic, partial curve, poor fit]"
same,Potency,[7],"inconclusive [inhibitor, single point]"
same,Potency,[8],"inconclusive [inhibitor, full curve]"
same,Potency,[9],"inconclusive [cytotoxic, partial curve]"
C=C1CCC2C(C)(C(=O)O)CCC(CC/C(C)=C/C(=O)NC(CCC(N)=O)C(=O)O)[C@@]2(C)C1 (stereo partly drawn),Potency,[1],"inconclusive [inhibitor, partial curve]"
same,Potency,[2],inactive
same,Potency,[14],inactive
same,Potency,[3],inactive
same,Potency,[6],"inconclusive [cytotoxic, full curve, poor fit]"
same,Potency,[8],inactive
CCCCCC(=O)N[C@@H](CC(C)C)C(=O)N[C@H](C=O)CCC(=O)O (Hexanoyl-Leu-Glu-aldehyde),Potency,[1],"inconclusive [inhibitor, partial curve]"
same,Potency,[2],inactive
same,Potency,[3],inactive
same,Potency,[15],inactive
same,Potency,[6],"inconclusive [cytotoxic, full curve, poor fit]"
same,Potency,[12],inactive
O=C1CC(c2ccc(O)cc2)Oc2cc(O)ccc21 (stereo not drawn),Potency,[1],"inconclusive [inhibitor, partial curve]"
same,Potency,[2],"inconclusive [cytotoxic, single point]"
same,Potency,[4],"inconclusive [cytotoxic, single point]"
same,Potency,[15],inactive
same,Potency,[11],inactive
same,Potency,[6],inactive
same,Potency,[12],"inconclusive [activator, single point]"
C=CC(CCCCC)C1C(=O)NC(=O)C1C(=O)C1C2C(C)CC(C(=O)O)CC2CC1(O)C(=O)/C=C/C (stereo not drawn),Potency,[1],active: 6.21 µM
same,Potency,[10],"inconclusive [cytotoxic, single point]"
same,Potency,[3],"inconclusive [cytotoxic, single point]"
same,Potency,[4],"inconclusive [cytotoxic, single point]"
same,Potency,[5],inactive
same,Potency,[16],active: 8.38 µM
same,Potency,[17],"inconclusive [activator, full curve]"
C[C@]12CCC[C@](C)(C(=O)O)[C@@H]1CC[C@@]1(C)c3cocc3CC[C@H]21,Potency,[1],active: 15.6 µM
same,Potency,[10],"inconclusive [cytotoxic, single point]"
same,Potency,[14],"inconclusive [cytotoxic, single point]"
same,Potency,[18],inactive
same,Potency,[4],inactive
same,Potency,[6],"inconclusive [cytotoxic, full curve]"
same,Potency,[12],"inconclusive [activator, partial curve]"
COc1cc2oc3ccccc3c(=O)c2cc1OC,Potency,[1],"inconclusive [inhibitor, partial curve]"
same,Potency,[10],"inconclusive [cytotoxic, single point]"
same,Potency,[13],inactive
same,Potency,[3],inactive
same,Potency,[4],"inconclusive [cytotoxic, single point]"
same,Potency,[11],"inconclusive [cytotoxic, single point]"
same,Potency,[5],"inconclusive [cytotoxic, partial curve]"
same,Potency,[17],"inconclusive [activator, partial curve, poor fit]"
same,Potency,[8],"inconclusive [inhibitor, partial curve]"
same,Potency,[19],inactive
